{
  "source": "PubChem BioAssay AID1460",
  "about": "(National Center for Advancing Translational Sciences (NCATS), 2008)",
  "note": "Values joined by “and” are separate entries in the source; they are usually repeats but may differ in a detail not shown here. Equal entries are not always repeated. Among all 270,000 compounds or so, about 5,800 (2.1%) were called active. Inconclusive means that the source gave no clear call. Such entries were picked first, then a sample of the others. Calls follow the shape of the dose curve; as a rule, active = well fitted inhibition curve with a large enough effect; inconclusive = small, poorly fitted or top-dose-only effect; inactive = flat fitted curve, though single readings scatter. A potency beside an inconclusive call is a rough fit, not a confirmed value. % is scaled to controls: 0 for no effect and ±100 for the full control effect; potency is read from the fitted curve at half-maximal effect; tags tell the direction and shape of the fitted curve.",
  "data": [
    {"biological_target": "Microtubule-associated protein tau (Homo sapiens) (UniProt P10636)", "sequence (P10636 whole entry, looked up, the tested form may be a part)": "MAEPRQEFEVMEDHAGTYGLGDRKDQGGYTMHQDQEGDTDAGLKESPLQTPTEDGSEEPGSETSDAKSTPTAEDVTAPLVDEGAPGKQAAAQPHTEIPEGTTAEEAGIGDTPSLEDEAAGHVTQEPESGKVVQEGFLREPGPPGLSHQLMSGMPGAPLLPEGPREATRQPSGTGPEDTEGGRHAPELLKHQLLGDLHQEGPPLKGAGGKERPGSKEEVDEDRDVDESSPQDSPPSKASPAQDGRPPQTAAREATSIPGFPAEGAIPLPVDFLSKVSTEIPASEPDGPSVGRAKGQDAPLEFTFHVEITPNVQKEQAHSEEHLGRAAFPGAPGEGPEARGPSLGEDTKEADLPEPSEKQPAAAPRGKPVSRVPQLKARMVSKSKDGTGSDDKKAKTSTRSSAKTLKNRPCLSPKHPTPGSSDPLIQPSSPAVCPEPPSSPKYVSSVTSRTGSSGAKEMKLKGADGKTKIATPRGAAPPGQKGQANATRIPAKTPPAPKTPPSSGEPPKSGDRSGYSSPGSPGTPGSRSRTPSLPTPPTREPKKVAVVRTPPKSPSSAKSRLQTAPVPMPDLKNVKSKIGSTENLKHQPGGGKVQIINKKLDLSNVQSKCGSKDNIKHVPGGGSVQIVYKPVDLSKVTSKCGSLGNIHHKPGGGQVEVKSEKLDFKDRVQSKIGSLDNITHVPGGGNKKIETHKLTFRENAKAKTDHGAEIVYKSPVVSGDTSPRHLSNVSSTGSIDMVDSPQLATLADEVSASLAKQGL", "experiment": "qHTS for Inhibitors of Tau Fibril Formation, Thioflavin T Binding; also: nearly all actives have a fitted effect of over 55% in size", "settings": "recombinant tau K18 P301L (four-repeat tau fragment), heparin-induced fibrillization, ThT fluorescence; series mostly up to 57.4 µM", "outline": "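In this qHTS, human K18 P301L tau is incubated with compound and heparin for 6 hr at 37 C, and Thioflavin T fluorescence then reports fibril load.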", "values": [
      {"compound": "COC(=O)C1=C(O)/C(=C\\c2cc(C)n(-c3ccccc3C)c2C)N=C1C", "Potency": "inconclusive: 22.4 µM [inhibitor, partial curve]"},
      {"compound": "Cc1ccc(OCCSc2cc(C)nc(N)n2)cc1", "Potency": "inconclusive: 15.8 µM [inhibitor, partial curve]"},
      {"compound": "CC(=O)N1CCc2cc(C(=O)CN3CCCN(Cc4ccc(F)cc4)C3)ccc21", "Potency": "inconclusive: 3.98 µM [inhibitor, partial curve]"},
      {"compound": "c1ccc(CCNc2ncnc3sccc23)nc1", "Potency": "inactive"},
      {"compound": "S=C(Nc1ccccc1)Nc1ccc(Br)cn1", "Potency": "inactive"},
      {"compound": "O=C(OCC(=O)N1CCCc2ccccc21)c1cncc(Br)c1", "Potency": "inconclusive: 20 µM [inhibitor, single point]"},
      {"compound": "Cc1nc(Nc2ccc3c(c2)OCCO3)c2oc3ccccc3c2n1", "Potency": "inconclusive: 14.1 µM [inhibitor, partial curve]"},
      {"compound": "CCc1cccc(C)c1NC(=O)c1cc2ccccc2o1", "Potency": "inactive"},
      {"compound": "CN(C)c1ccc(C(=O)Nc2nnc(C3=COCCO3)o2)cc1", "Potency": "inconclusive: 20 µM [inhibitor, partial curve]"},
      {"compound": "CCn1c2ccccc2c2cc(NC(=O)C(=O)N3CCOCC3)ccc21", "Potency": "inconclusive: 17.8 µM [inhibitor, partial curve]"},
      {"compound": "N[C@](CC1c2ccccc2Oc2ccccc21)(C(=O)O)[C@H]1C[C@@H]1C(=O)O", "Potency": "inactive"},
      {"compound": "CCCCc1c(O)c2ccccc2n(CCCC)c1=O", "Potency": "inactive"},
      {"compound": "C/C(=N\\Nc1ccc(F)cc1)c1ccncc1", "Potency": "inactive"},
      {"compound": "CCC(Cn1nnc2ccccc2c1=O)NC(=O)Nc1cc(OC)cc(OC)c1", "note": "(stereo not drawn)", "Potency": "inactive"},
      {"compound": "C=CCNC(=S)NNC(=O)COc1ccc(Cl)cc1Cl", "Potency": "inactive"},
      {"compound": "O=C1c2cccc3c(Cl)ccc(c23)C(=O)N1O", "Potency": "inconclusive: 25.1 µM [inhibitor, partial curve]"},
      {"compound": "COc1cccc(N2CCN(C(=O)c3ccc4c(Cl)c5c(nc4c3)CCCC5)CC2)c1", "Potency": "inconclusive: 12.6 µM [inhibitor, partial curve, poor fit]"},
      {"compound": "Cc1ccc2oc(-c3ccc(NC(=O)c4cccnc4)cc3)nc2c1", "Potency": "inconclusive: 20 µM [activator, single point]"},
      {"compound": "COc1ccc(NC(=O)Cn2cc(S(=O)(=O)c3ccccc3)c(=O)c3cc(C)ccc32)cc1Cl", "Potency": "inactive"},
      {"compound": "COC(=O)c1cn(-c2ccccc2)nc1-c1ccncc1", "Potency": "inactive"},
      {"compound": "Oc1c(/C=C/C=C/C=Nc2ccccc2)sc(=S)n1Cc1ccccc1", "Potency": "active: 1.78 µM"},
      {"compound": "C#CCCCO/N=C1/C[C@@H](O)[C@@H](O)[C@@H]2[C@@H]3C(=O)N(C[C@@H]4CCCO4)C(=O)[C@H]3CC[C@@H]12", "activity, negative = inhibition": "inactive: -7.41% [at 11.5 µM]"},
      {"compound": "COc1ccccc1NS(=O)(=O)c1cc([N+](=O)[O-])ccc1N/N=C/c1sc(N2CCOCC2)nc1-c1ccccc1", "Potency": "inconclusive: 5.01 µM [inhibitor, partial curve]"},
      {"compound": "CCOc1cccc(C(=O)NC(=S)Nc2ccccc2)c1", "Potency": "inconclusive: 31.6 µM [inhibitor, single point]"},
      {"compound": "NNc1nncc2ccccc12", "Potency": "inconclusive: 5.62 µM [inhibitor, partial curve] and inconclusive: 7.94 µM [inhibitor, partial curve]"},
      {"compound": "COc1ccccc1OCCOCCOc1ccc(C)cc1Br", "Potency": "inconclusive: 15.8 µM [inhibitor, partial curve, poor fit]"},
      {"compound": "Cc1cccc(NC(=O)Nc2ccc(C)c(C)c2)n1", "Potency": "inconclusive: 7.08 µM [inhibitor, partial curve] and inconclusive: 2 µM [inhibitor, full curve]"},
      {"compound": "Cc1cc(C(=O)CCl)c(C)n1-c1cccc([N+](=O)[O-])c1", "Potency": "inconclusive: 15.8 µM [inhibitor, partial curve]"},
      {"compound": "Cc1cc(N2CCN(C)CC2)nc2ccc(NC(=O)c3ccccc3F)cc12", "Potency": "inconclusive: 35.5 µM [inhibitor, single point] and inconclusive: 20 µM [inhibitor, partial curve]"},
      {"compound": "CCOc1cc(N2CCOCC2)c(OCC)cc1NC(=O)c1ccccc1C", "Potency": "inactive"},
      {"compound": "O=c1[nH]c2ccc(Cl)cc2c(-c2ccccc2)c1N1CCN(c2ccccn2)CC1", "Potency": "inconclusive: 11.2 µM [inhibitor, partial curve]"},
      {"compound": "N=C1SCC(=O)N1/N=C/c1ccccc1", "Potency": "inactive"},
      {"compound": "COc1ccc(-n2c(=O)c3ccccc3n(CC(=O)NC3CCCC3)c2=O)cc1", "Potency": "inactive"},
      {"compound": "CC(=O)Nc1ccc(S(=O)(=O)N2CCN(c3ccc(C)c(C)c3)CC2)cc1", "Potency": "inactive"},
      {"compound": "CCC(OC(=O)c1cccs1)C(=O)NCc1ccco1", "note": "(stereo not drawn)", "Potency": "inactive"},
      {"compound": "[C-]#[N+]c1cc(-c2ccncc2)c(C)[nH]c1=O", "Potency": "inactive"},
      {"compound": "COc1cc2c(cc1OC)CN(Cc1cc(OC)c(O)c(OC)c1)CC2", "Potency": "inconclusive: 17.8 µM [inhibitor, single point]"},
      {"compound": "Cc1cccc(OCCCCc2c(C)n[nH]c2C)c1C", "Potency": "inconclusive: 14.1 µM [inhibitor, single point]"},
      {"compound": "O=C(/C=C/c1ccc(Cl)cc1Cl)n1cccn1", "Potency": "active: 7.94 µM"},
      {"compound": "O=C(c1cnn(-c2ccc(F)cc2)c1-n1cccc1)N1CCN(c2cccc(Cl)c2)CC1", "Potency": "inactive"},
      {"compound": "CCN(Cc1ccccc1)C(=O)COC(=O)c1n[nH]c2ccccc12", "Potency": "inconclusive: 44.7 µM [inhibitor, single point]"},
      {"compound": "CCCCN(CCCC)C(=S)N/N=C/c1c(C)[nH]n(-c2ccccc2)c1=O", "Potency": "inconclusive: 17.8 µM [inhibitor, partial curve]"},
      {"compound": "COc1ccc(-c2csc(NC(=O)CCn3cnc4ccccc4c3=O)n2)cc1OC", "Potency": "inconclusive: 15.8 µM [inhibitor, single point]"},
      {"compound": "COc1ccc(Cn2c(CNS(=O)(=O)c3ccc(Cl)s3)nc3cccnc32)cc1", "Potency": "inactive"},
      {"compound": "O=S(=O)(NCc1csc(-c2ccccc2)n1)c1ccccc1", "Potency": "inactive"},
      {"compound": "CC(C)(C)/C(O)=C(/C#N)c1nc2ccccc2[nH]1", "Potency": "inactive"},
      {"compound": "O=C(CCC(=O)Nc1ccccc1)N/N=C/c1ccncc1", "Potency": "inconclusive: 39.8 µM [activator, single point]"},
      {"compound": "CCOc1ccc(NC(=O)C(=O)NCCc2sc(-c3ccc(C)cc3)nc2C)cc1", "Potency": "inconclusive: 1.78 µM [inhibitor, full curve]"}
    ]}
  ]
}
